In PubChem BioAssay AID504332 (National Center for Advancing Translational Sciences (NCATS), 2011):
Hit rate of the full screen: of about 350,000 compounds, about 31,000 (8.9%) were called active. The shares of active, inactive and inconclusive entries below differ from those in the screen. The call rests on the fitted dose curve; in most records, active means well fitted inhibition curve with a large enough effect; inconclusive means small, poorly fitted or top-dose-only effect; inactive means no such curve, though single readings can be large or run the other way. Where the call is inconclusive, the potency comes from a doubtful curve fit. Some compounds were tested as several samples or in several runs, with calls that do not always agree.

What follows are molecules tested against Histone-lysine N-methyltransferase EHMT2 (Homo sapiens) (UniProt Q96KQ7) (assay: qHTS Assay for Inhibitors of Histone Lysine Methyltransferase G9a). Settings: G9a H3K9 monomethylation, AlphaScreen, 2 h; activity, negative = inhibition: at 59 µM (top of the series) unless noted.
UniProt Q96KQ7, sequence (Q96KQ7 whole entry, looked up): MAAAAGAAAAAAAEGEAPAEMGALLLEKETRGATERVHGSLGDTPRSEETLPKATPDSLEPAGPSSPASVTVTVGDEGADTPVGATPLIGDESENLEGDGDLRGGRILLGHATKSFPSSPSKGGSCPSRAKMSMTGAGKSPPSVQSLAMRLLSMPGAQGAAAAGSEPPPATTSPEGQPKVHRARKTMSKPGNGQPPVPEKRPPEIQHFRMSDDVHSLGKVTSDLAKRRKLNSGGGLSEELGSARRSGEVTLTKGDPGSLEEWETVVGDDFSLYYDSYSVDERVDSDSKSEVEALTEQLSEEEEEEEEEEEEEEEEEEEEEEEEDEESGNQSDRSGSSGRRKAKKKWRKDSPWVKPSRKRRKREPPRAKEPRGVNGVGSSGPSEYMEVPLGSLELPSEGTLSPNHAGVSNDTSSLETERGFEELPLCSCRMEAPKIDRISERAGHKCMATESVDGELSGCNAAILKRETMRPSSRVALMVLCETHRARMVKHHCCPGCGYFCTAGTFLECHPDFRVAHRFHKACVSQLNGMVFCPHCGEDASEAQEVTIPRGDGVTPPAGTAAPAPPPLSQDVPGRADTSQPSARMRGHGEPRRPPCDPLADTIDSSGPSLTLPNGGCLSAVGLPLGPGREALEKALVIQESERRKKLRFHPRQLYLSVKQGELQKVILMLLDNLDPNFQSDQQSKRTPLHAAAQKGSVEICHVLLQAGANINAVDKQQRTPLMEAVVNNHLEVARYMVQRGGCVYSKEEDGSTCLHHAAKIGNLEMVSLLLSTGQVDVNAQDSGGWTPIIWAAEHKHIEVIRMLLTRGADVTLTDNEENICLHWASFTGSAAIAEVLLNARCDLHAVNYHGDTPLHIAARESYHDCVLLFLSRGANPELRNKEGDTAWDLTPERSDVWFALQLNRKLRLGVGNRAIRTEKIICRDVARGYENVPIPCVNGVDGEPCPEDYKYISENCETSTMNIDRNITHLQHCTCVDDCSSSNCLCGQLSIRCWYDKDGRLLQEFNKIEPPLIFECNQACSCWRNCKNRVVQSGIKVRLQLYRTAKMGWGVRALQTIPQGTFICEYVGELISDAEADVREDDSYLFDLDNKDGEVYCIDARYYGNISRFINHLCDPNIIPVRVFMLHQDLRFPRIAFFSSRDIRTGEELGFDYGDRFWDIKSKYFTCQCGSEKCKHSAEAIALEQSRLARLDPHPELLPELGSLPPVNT
Method in brief: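 Using a bead-based AlphaScreen, monomethylated H3K9 product from 2 h room-temperature reactions (G9a 20 nM, peptide 500 nM, SAM 20 uM) was detected with 0.5 ug/mL rabbit anti-H3K9me1 antibody.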
Further: nearly all actives have a fitted effect of over 75% in size.
On the % scale 0 is the no-effect control and ±100 the full control effect; potency means the concentration at half of the fitted maximal effect; tags describe the fitted curve by direction and shape.

SMILES	Potency	activity, negative = inhibition
CC(NC(=O)c1cccs1)C(c1cccs1)N1CCN(c2ccccc2)CC1 (configuration not stated)	inconclusive: 39.8 µM [inhibitor, partial curve, poor fit]	
CN1C(CC(=O)Nc2ccc(Cl)cc2Cl)c2ccccc2CC1(C)C (configuration not stated)	inconclusive: 56.2 µM [inhibitor, partial curve]	
Fc1ccc(-n2ncc3c(N4CCN(c5ccccc5F)CC4)ncnc32)cc1		inactive: 17.9%
O=C(NNC1=NS(=O)(=O)c2ccccc21)C1CC(=O)N(c2ccccc2)C1 (configuration not stated)	inconclusive: 70.8 µM [inhibitor, partial curve, poor fit]	
Cc1cccc(NC(=O)NC(=S)NC(=O)c2ccccc2)c1	inconclusive: 3.16 µM [inhibitor, single point]	
CCOC(=O)c1c(-c2cccs2)csc1NC(=O)CSc1ncn[nH]1	inconclusive: 5.62 µM [inhibitor, single point]	
COc1cccc(OC)c1OCCCCN1CCCCC1	active: 11.2 µM	
CCN(CC)c1ccc(C2C(C(=O)OC(C)C)C(=O)CC(C)(O)C2C(=O)OC(C)C)cc1 (configuration not stated)	inconclusive: 89.1 µM [inhibitor, single point]	
CCc1ccc(NS(=O)(=O)c2c(C)noc2C)cc1		inactive: 5.46% [at 102 µM]
CCOCCCNCc1cn(-c2ccc(F)cc2F)nc1-c1ccccc1C	inconclusive: 79.4 µM [inhibitor, partial curve, poor fit]	
CCSCc1nc2ccccn2c1Br	active: 12.6 µM	
Cc1c(C(=O)O)sc2ncnc(N3CCCCC3C)c12 (configuration not stated)		inactive: -0.4% [at 12.7 µM]
N#C/C(=C/c1ccc(O)c([N+](=O)[O-])c1)C(=O)Nc1ccccc1	inconclusive: 39.8 µM [inhibitor, partial curve]	
CCOC(=O)c1cccc(P(C)(C)=O)c1	inconclusive: 35.5 µM [inhibitor, single point]	
Cc1cc(=O)oc2c3c(ccc12)OCN(Cc1ccc(Cl)cc1)C3		inactive: -49.9%
COc1ccc(C(=O)NCc2ccncc2)cc1S(=O)(=O)N1CCOCC1	inconclusive: 3.16 µM [inhibitor, single point]	
O=C(c1ccccc1)N1CCN(CC2CC=CCC2)CC1 (configuration not stated)	active: 2.24 µM	
COC(=O)c1ccc(NC(=O)CC2C(=O)N(c3cccc(C)c3)C(=O)N2C2CCCC2)cc1 (configuration not stated)	active: 7.08 µM	
O=C(NCc1ccco1)c1ccc(S(=O)(=O)N2CCOCC2)cc1	active: 12.6 µM	
Cc1nc2ccccc2c2oc(C(=O)NCCCN3CCCC3=O)cc12		inactive: -10.5% [at 102 µM]
O=C(CN1C(=O)c2ccccc2C1=O)Nc1ccccc1C(F)(F)F		inactive: 21% [at 102 µM]
CCN1CCN(CC(=O)N2c3ccccc3CC2C)CC1 (configuration not stated)	inconclusive: 2.82 µM [inhibitor, partial curve, poor fit]	
COc1cc(N)c(Cl)cc1C(=O)OCC(=O)c1cccs1	inconclusive: 89.1 µM [inhibitor, single point]	
Cc1ccc(-c2ccc(/C=N\n3cnnc3)o2)c(Br)c1	inconclusive: 79.4 µM [inhibitor, single point]	

SMILES	Potency	activity, negative = inhibition
CCc1nnc(NC(=O)CN2C(=O)/C(=C/c3cc(OC)c(OC)c(OC)c3)SC2=S)s1		inactive: 7.46%
O=C(NCCc1ccc(Cl)cc1)c1ccc2c(c1)N(Cc1cccc(Cl)c1)C(=O)c1ccccc1S2(=O)=O		inactive: -14.6%
Cc1ccc(S(=O)(=O)N(C)/N=C/c2ccc(N(C)C)cc2)cc1	active: 17.8 µM	
CC(C)c1ccc(S(=O)(=O)c2cc3cc(Br)ccc3oc2=O)cc1	inconclusive: 70.8 µM [inhibitor, single point]	
O=C(CSC1=NS(=O)(=O)c2cc(Cl)ccc2N1)Nc1ccccc1C(F)(F)F	inconclusive: 56.2 µM [inhibitor, partial curve, poor fit]	
CC(=O)Nc1ccc(C(=O)CSc2nnc(Cn3nnc4ccccc43)n2C)cc1	active: 79.4 µM	
O=C(CP(=O)(O)CC(=O)c1ccccc1)c1ccccc1	inconclusive: 79.4 µM [inhibitor, single point]	
Cc1ccc(OCc2cc(C(=O)N3CCN(C4CCCC4)CC3)no2)cc1C	inconclusive: 12.6 µM [inhibitor, partial curve, poor fit]	
Cc1ccccc1CC1(CO)CCCN(C(=O)c2ccccc2N(C)C)C1 (configuration not stated)	inconclusive: 70.8 µM [inhibitor, partial curve, poor fit]	
CCOC(=O)c1c(-c2ccccc2)oc2cc(Br)c(O)c(C=O)c12	inconclusive: 10 µM [inhibitor, partial curve, poor fit]	
COc1ccc(CNc2ccccc2)cc1Br		inactive: -4.64%
N#Cc1ccc(CN2CCN(C(=O)c3ccccc3)CC2)c(Cl)c1	inconclusive: 89.1 µM [inhibitor, single point]	
C#CCOCCOCCOCCNc1nc(N2CCN(C(=O)[C@H](CCCCN)n3cc(CCCC)nn3)CC2)nc(N2CCN(C(=O)[C@H](CCCCN)n3cc(CCCC)nn3)CC2)n1	active: 39.8 µM	
CCCNS(=O)(=O)c1cccc(C(=O)OCc2cc(=O)oc3cc(OC)ccc23)c1	inconclusive: 89.1 µM [inhibitor, partial curve, poor fit]	
COC(=O)c1c(N(S(C)(=O)=O)S(C)(=O)=O)sc2c1CCN(c1ncc(C(F)(F)F)cc1Cl)C2	inconclusive: 25.1 µM [inhibitor, single point]	
COc1ccc(NC(=O)CN(C)C(=O)C(Sc2ccccc2)c2ccccc2)cc1 (configuration not stated)		inactive: 15.1% [at 12.7 µM]
CCOC(=O)c1cccc(S(=O)(=O)N2CCOCC2)c1		inactive: 7.1% [at 102 µM]
Cc1csc2c(SCC(=O)NNC(=O)C(Cl)Cl)ncnc12	inconclusive: 79.4 µM [inhibitor, partial curve, poor fit]	
COc1ccc(OC)c2sc(N(CCCN(C)C)C(=O)c3ccco3)nc12	inconclusive: 28.2 µM [inhibitor, partial curve, poor fit]	
CCCCOc1ccc(CC(=O)NO)cc1	active: 28.2 µM	
c1ccc(-n2cccc2CNC2CCCCC2)cc1	inconclusive: 10 µM [inhibitor, partial curve, poor fit]	
O=C(CCCOc1ccccc1)Nc1nc2ccccc2[nH]1		inactive: -3.04% [at 102 µM]
COc1ccc(-n2c(=S)[nH]c3ccccc32)cc1	active: 3.55 µM	
O=S(=O)(c1ccc(=S)[nH]c1)N1CCOCC1	inconclusive: 1 µM [inhibitor, full curve, poor fit]	

SMILES	Potency	activity, negative = inhibition
C/C(=N\NC(=O)c1ccc(-c2ccccc2)cc1)c1ccco1		inactive: 12.9% [at 102 µM]
O=C(c1cc(-c2cccs2)nc2ccccc12)N1CCN(S(=O)(=O)c2cccc(F)c2)CC1	inconclusive: 17.8 µM [inhibitor, single point]	
COc1ccc([N+](=O)[O-])cc1NC(=O)c1ccc(N2C(=O)CCC2=O)cc1		inconclusive: -63.7% [inhibitor]
O=C(COc1cc(Cl)ccc1Cl)Nc1nnc(CC(=O)N2CCOCC2)s1		inconclusive: -60.6% [inhibitor]
Oc1c(Cl)cc(Cl)cc1Sc1cc(Cl)cc(Cl)c1O	inconclusive: 79.4 µM [inhibitor, single point]	inconclusive: -52.2% [inhibitor] [at 2.33 µM]
CC(=O)NC1(C(F)(F)F)NC(=O)N(CCc2ccccc2)C1=O (configuration not stated)	inconclusive: 100 µM [inhibitor, single point]	
CCOc1cc(-c2nc(C)c(C(C)=O)n2O)ccc1OCC(=O)Nc1ccccc1	inconclusive: 20 µM [inhibitor, partial curve, poor fit]	
O=C(CCn1c2c(c3ccccc31)CCCC2)NNC(=O)c1ccccc1Cl		inactive: -1.54% [at 102 µM]
COc1ccc(C2c3c(oc4ccccc4c3=O)C(=O)N2c2nc(C)c(C)s2)cc1 (configuration not stated)		inactive: 9.28%
Cc1ccccc1CNC(=O)CCSCc1cnn(-c2ccccc2)c1-n1cccc1	inconclusive: 31.6 µM [inhibitor, single point]	
COc1ccc(OC)c(S(=O)(=O)N/N=C\c2c[nH]c3ccccc23)c1	inconclusive: 14.1 µM [inhibitor, partial curve, poor fit]	
COCCn1nnnc1C(CC(C)C)N1CCN(C(=O)c2ccco2)CC1 (configuration not stated)	active: 39.8 µM	
O=C(O)c1ccc2c(=O)n3c(nc2c1)/C(=C/c1cccc(Cl)c1Cl)CC3	inconclusive: 89.1 µM [inhibitor, single point]	
CSCCC(NS(=O)(=O)c1ccc2c(c1)Cc1cc(S(=O)(=O)NC(CCSC)C(=O)O)ccc1-2)C(=O)O (configuration not stated)	inconclusive: 89.1 µM [inhibitor, single point]	
CCOc1ccc(CCNC(=O)c2cc3c(-c4ccccc4F)nn(C)c3s2)cc1OCC		inactive: -10.9%
Cc1ccc(-c2noc(COc3ccccc3C)n2)cc1		inactive: 35.5% [at 12.7 µM]
CCN(CC)CC(=O)Nc1ccc(C)cc1C(=O)c1ccccc1		inactive: -0.557%
COCCNC(=S)N1CCN(S(C)(=O)=O)CC1		inactive: 8.01% [at 102 µM]
CN(C)c1ccc2c(c1)Sc1cc(N(C)C)ccc1N2C(=O)c1ccccc1	active: 10 µM	
CCc1nnc(NC(=O)c2cc(-c3cccnc3)nc3ccccc23)s1	inconclusive: 50.1 µM [inhibitor, partial curve, poor fit]	
CC(Sc1nnc(-c2ccco2)o1)C(=O)NCCC1=CCCCC1 (configuration not stated)	active: 50.1 µM	
CN(Cc1ccccc1)C(=O)CSc1nnc(-c2ccco2)n1-c1ccccc1	inconclusive: 35.5 µM [inhibitor, single point]	
C=C(C)C(=O)Nc1cccc(C2=NOC3(C2)C[C@H](C(N)=O)N(C(=O)/C=C/C)C3)c1 (some centres not stated)		inconclusive: -165% [inhibitor] [at 12.7 µM]
